# Data taken from the supplement of paper PMC11417369.
# This is one part of the list.
# Test system: PfHDP1 homeodomain (GST-tagged)
# Experiment: gcPBM binding intensity (ln(normalized median fluorescence intensity)); higher = stronger DNA binding
# Method in brief: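 The binding buffer was 1× PBS containing 1% milk, 0.2 mg/ml BSA, 0.5% salmon testes DNA and 0.03% Triton X-100. In it, GST-tagged P. falciparum DNA-binding domains expressed in E. coli were applied for 1 h to an Agilent 4 × 180k array of primer-extended double-stranded 36-bp intergenic genomic probes plus negative controls. Binding intensity, read with Alexa488 anti-GST antibody and a 488 nm scan, is the highest Masliner-normalised natural-log median intensity across replicate spots of either probe orientation.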
row,Sequence,gcPBM binding intensity (ln)
1,AATAAATAAATAAATATATATATATATATATATATG [CACACA_negctrl_site899],7.21
2,TTTTGTTGATTTATATCTGTAGGGTTTAATATAACA [XGTACX_negctrl_site174],6.2
3,TTATTTTTGTGTAAGGTGCTATATATAATGTTTTTA,7.05
4,AAAAAGGATAAACACACACACACACCGATATATATA [CACACA_site8206],6.97
5,AACGAAATCATCAAGTGTACTAGTTTATTATTAATA [XGTACX_site6161],6.29
6,AAATGTGATATAAGTACACACACATATGTATATATA [CACACA_site8539],6.7
7,ATATTATATATATACACACACACATGCATGCACCTA [CACACA_site106],9.86
8,TTTTTTAAATATATGGTGCATAGAAAGATATTATAC [GTGCAC_site9984],9.71
9,ACATGTGAACATTCAATGCACACGATGTAATTATAC [CACACA_site14],8.41
10,ATGTGTTAAAAATGCACACAAAAAAATATACATATA [CACACA_site295],9.92
11,CTTAAATTTTACTGAAGTACAAAATCGGTTCAATGA [XGTACX_site3292],6.1
12,TATACATATTTTTTTTGTACATATATAATATATATA [XGTACX_site2399],6.59
13,GGGAAAAAAAAAAGCACACATACGTAAATATATAAC [CACACA_site226],6.6
14,AATTAAATTCGGTACTGTACATTTCAAAAATATACG [XGTACX_site48],6.15
15,CAATTATATAATTGAAGTACTAGGAAAGATATATAT [XGTACX_site5459],7.09
16,TAAAAAAATATTACATGTACATAAAATATATATATA [XGTACX_site4633],8.22
17,TTTAAAAAAAGCAGTACATGCAAAATAATAACAAGC [TGCATGCA_site392],7.52
18,TTGCATTAATTTATGTGTACATATAAATTTTTATTT [XGTACX_site3060],6.94
19,TATAAATATAAATATACACACATATATATATATATA [CACACA_site1678],9.33
20,CTTATAGGTCATTTCCTTGACCCCCTTTGTTGTACT [CACACA_negctrl_site551],6.45
21,ATCAGTCGGCAGGACAGTACACAGTAGCCAGAAAAT [XGTACX_site2550],6.46
22,AAAGAATTTGCATATACACACAAAAAAATATATACA [CACACA_site386],7.12

row,Sequence,gcPBM binding intensity (ln)
1,GTGTAGATATTGAAATGTACTCTCCATATAAAATAA [XGTACX_site4713],6.13
2,TTACGATACTTTAGGTGTACACAAATATACATGAAT [XGTACX_site4322],7
3,ATATATATATATATATGTACTTATTTATTTATATTA [XGTACX_site4646],9.38
4,ATTCTACTTTTATTTATTTATTTGTTTATATATATA [XGTACX_negctrl_site609],7.2
5,GAATGAATACGTTTTACACACTTGAATCTAATTTCA [CACACA_site6593],6.33
6,TTTTTTATTCATGTAACACACATTTAATTATGAATT [CACACA_site2706],6.63
7,GAAAAATTAAAACCTACACACACATTTAAAAAAAAA [CACACA_site9005],6.44
8,ATAAATACATATGTGTGTACACATTATATATATATA [XGTACX_site1486],9.17
9,ATATATATATAATCATCACACATGCAGCCCTGATGA [CACACA_site5500],8.51
10,TATATATTACATACATGTACCCAAAAAAAAAAAAAA [XGTACX_site1168],6.52
11,AAAAAATTAGATTATGCACACACACTAATAAATAAT [CACACA_site8604],9.67
12,AACAAAATTGAAGGAACACACATACATATTTATATA [CACACA_site6227],6.5
13,TTTATTTAAGAAAAATGTACAGGTTCATTTCATAAT [XGTACX_site27],6.1
14,CATATAAATACATGCACACAAAAATATCAATACATT [CACACA_site2392],8.76
15,ATTTGTTCCTTGGGAGTTTACTTTTTTTTAATTTTA [CACACA_negctrl_site638],6.55
16,TATAAAAATATATATATATATATATATATAATATGT [TGCATGCA_negctrl_site85],7.01
17,TTAAAAAAAAAACACACACACATACCCATATATATA [CACACA_site5768],6.9
18,TTCTTTTTAATTAATACACACACACCCATATATATA [CACACA_site8719],7.3
19,GGTCTAACAACATGCGCACACACATGAATATTCATA [CACACA_site1539],8.13
20,TAAGTATAAAAAAATAGTACAATTATGAAATATCGT [XGTACX_site2529],6.6
21,GCCCCCTAAAAAATTACACACGAAAAAAATGAATTT [CACACA_site9128],7.63
22,TTTTTTTTTTTTTTATGTACACATCTAAAAAAAAGG [XGTACX_site2067],6.75

row,Sequence,gcPBM binding intensity (ln)
1,TTTAACAAGTTAAACACACATACATATATACATATA [CACACA_site2536],6.4
2,AAAAATAACATATAAACACACATATAGATTTATATA [CACACA_site7738],6.33
3,TGTAGTCTGGAGAAGAGTACACAGTATCTGGTAGCT [XGTACX_site2036],5.85
4,TTAAAAAATCACAACACACACACACGCAAAAAAAAA [CACACA_site6793],6.95
5,ATATAGAATGTTTACACACGCAATAAATATATATAT [CACACA_site217],7.99
6,GCGTATCATTTTAAAACACACAGGATTTTATAAGTA [CACACA_site1225],6.42
7,ATGGTATAAAAAAATACACACTTATTTATATTCTTA [CACACA_site6370],6.11
8,ATGTACCTTCAAACTACACACAAATGAAGGAACACA [CACACA_site3330],6.55
9,ATCTAATAAAAATACACACACATATGGTTTGTGAAT [CACACA_site6962],6.63
10,AAATATTACATACACGCACACATTAAAATATTTAAA [CACACA_site5440],7.46
11,AATATATATATATATATATTTTTGTTAGAATATGGA [CACACA_negctrl_site212],6.69
12,TCTATTAATTAATATACACACATTATATATATATAT [CACACA_site8815],8.73
13,TACATTATAAATATTACACACTTTATAAAATAATAA [CACACA_site6096],6.45
14,AAATAACTTTTAAATACACACGTAAAATATATTGTG [CACACA_site9085],6.39
15,ACCGTGGGAGGACACACACACACACGCACATATATA [CACACA_site6289],6.63
16,TCCTTTTTTTTTTATGCACACACAATTATACATTCC [CACACA_site9287],10.5
17,TTAACCACTAAAAGTACACACATATATACATATATA [CACACA_site3912],6.36
18,ATAATATTTTTATGTACACACCTTAATCCTTAAAAG [CACACA_site5881],6.62
19,ATTATGCACAGACACACACACACACTACTAAAAAAT [CACACA_site7252],11.1
20,ATAGGAGAAAAAGAATGTACGTATGATGTTGAAAAT [XGTACX_site7779],7.06
21,AATTTTTAGAAGAACACACACATATATATTATGACC [CACACA_site246],6.78
22,AAAAAAAATAAAAATATATATATATATATATAAATA [GTGCAC_negctrl_site676],6.74

row,Sequence,gcPBM binding intensity (ln)
1,AAGCATTTTTTTTAAAGCCTGTTCATCATCCTTACC [CACACA_negctrl_site129],6.22
2,AAATAAATAAATAGAGTGCATATATATATATATTTT,7.78
3,CTTTTTATTTATCATACACACACAGAAAAAAAAAAA [CACACA_site7935],6.59
4,ATATACAAAGGATTAACACACATATTATTATAGATA [CACACA_site6966],6.43
5,TATTTATATATTTGTTGTACGTATTTATATATTCTT [XGTACX_site3622],6.55
6,TTATATTAATATTATATTTAAAAATAAAATATAAAT [TGCATGCA_negctrl_site79],5.8
7,AAACAAAAAAGAAAAACAATGAGATAAAGAAGAGAA [CACACA_negctrl_site804],7.09
8,AAAAGAAAAATATTCACACATATAAATAATATATAA [CACACA_site4201],6.11
9,TTTAATTATTTATTTTGTACATATATTATATATATA [XGTACX_site5760],6.86
10,ATTTTTATATATATCTGTACTAAAAAAAAAAAAAAA [XGTACX_site5258],6.47
11,AGAAGTAAAAAAATAGCACACACACTAATACCAACA [CACACA_site8354],7.15
12,AAAAGAGAAATGGGCACACACACACCCATTATATAT [CACACA_site1530],6.43
13,ATATATACATACATATGTACATATGTAGATATATTT [XGTACX_site1230],6.43
14,TATTTGTTTAAATTCACACACGTATATATATTTATA [CACACA_site5651],6.56
15,ATTATGAAATATCGTGCACACACGAATAATATAAGA [CACACA_site1294],9.49
16,TACGTTTTAAAACACACACACAAAAAAAAAAAAAAA [CACACA_site3876],6.46
17,ATTTTTTTTGTTTATTCTTATGTGGTTATTAAATTA [CACACA_negctrl_site1000],6.81
18,ATTAATTTGATTTTAATAAGAATATTTGTGGGGAAT [GTGCAC_negctrl_site198],6.62
19,TGAATAATAAAAAATACACACACATATATATATATT [CACACA_site9146],6.54
20,TTTTATTTTTGTTGGTCCCTCATTTAAGTTAATAAA [TGCATGCA_negctrl_site465],6.5
21,TTTTCAATATATATATGCTGAATTTATAATTTGTAT [CACACA_negctrl_site1774],6.08
22,ATATTGATTTGTGGCACACATATAATATATTCCTAT [CACACA_site3046],6.16
